This is one part of the list.
Columns and labels:
HSkMC = human skeletal muscle cells; test: cytotoxicity call (relative viability < 0.9); details: 10 µM
HepG2 = test: cytotoxicity call (relative viability < 0.9); details: 10 µM
S. aureus RN4220 = test: growth inhibition call (relative growth <= 0.2); details: 50 µM

C[C@@H]1CCCCO[C@@H](CN(C)S(=O)(=O)c2ccc(Cl)cc2)[C@@H](C)CN([C@@H](C)CO)C(=O)c2cc(NC(=O)Nc3ccc(F)cc3)ccc2O1
inactive: cytotoxicity call (HSkMC) | cytotoxicity call (HepG2) | growth inhibition call (S. aureus RN4220)

C[C@@H]1CN([C@H](C)CO)C(=O)c2cc(NC(=O)Nc3cccc4ccccc34)ccc2O[C@@H](C)CCCCO[C@H]1CN(C)C(=O)c1ccccc1
inactive: cytotoxicity call (HSkMC) | cytotoxicity call (HepG2) | growth inhibition call (S. aureus RN4220)

CCCCC[C@@H](O)[C@@H]1C(=O)O[C@H](C)[C@H](O)/C=C/C=C/C=C/C=C/C=C(\C)[C@H](O)C[C@H](O)C[C@H](O)C[C@H](O)C[C@H](O)C[C@H](O)C[C@@H]1O
inactive: cytotoxicity call (HSkMC) | cytotoxicity call (HepG2) | growth inhibition call (S. aureus RN4220)

C[C@@H]1CN([C@@H](C)CO)C(=O)c2cc(NC(=O)Nc3ccccc3)ccc2O[C@H]1CN(C)S(C)(=O)=O
inactive: cytotoxicity call (HSkMC) | cytotoxicity call (HepG2) | growth inhibition call (S. aureus RN4220)

C[C@H]1CN([C@@H](C)CO)C(=O)c2cc(NC(=O)C3CC3)ccc2O[C@@H]1CN(C)S(=O)(=O)c1ccc(F)cc1
inactive: cytotoxicity call (HSkMC) | cytotoxicity call (HepG2) | growth inhibition call (S. aureus RN4220)

COc1ccc(S(=O)(=O)Nc2cccc3c2O[C@@H](CN(C)Cc2ccc(Cl)c(Cl)c2)[C@H](C)CN([C@H](C)CO)C3=O)cc1
inactive: cytotoxicity call (HSkMC) | cytotoxicity call (HepG2) | growth inhibition call (S. aureus RN4220)

C[C@@H](N)CCCP(=O)(O)O
inactive: cytotoxicity call (HSkMC) | cytotoxicity call (HepG2) | growth inhibition call (S. aureus RN4220)

COc1ccc(cc1)CN1C[C@]2(CCN(CC2)C(=O)Nc2cccc(c2)F)c2c([nH]c3cc(ccc23)OC)[C@H]1CO
inactive: cytotoxicity call (HSkMC) | cytotoxicity call (HepG2) | growth inhibition call (S. aureus RN4220)

Cc1noc(C)c1S(=O)(=O)Nc1ccc2c(c1)C(=O)N([C@@H](C)CO)C[C@H](C)[C@H](CN(C)Cc1ccccc1)OCCCC[C@@H](C)O2
inactive: cytotoxicity call (HSkMC) | cytotoxicity call (HepG2) | growth inhibition call (S. aureus RN4220)

Reference: the antibiotic and cytotoxicity screens of Wong et al. (2023)
